Measured values: PubChem BioAssay (NCATS)
For some of these results: A note “side channel” means that the fit belongs to a control or component signal, not to the main read-out. Calls of active or inactive are those of the source. Where a call stands in place of a potency, no number is given. Unless noted, the call rests on the fitted dose curve.

What was measured:
[1] = molecular target: Estrogen receptor (Homo sapiens) (UniProt P03372); assay: qHTS assay for small molecule antagonists of estrogen receptor alpha signaling (AID 588513; active means well fitted curve in the direction sought with a large enough effect in the signal ratio, with a control signal flat, not every such curve was filed as active; inconclusive means small, poorly fitted or top-dose-only effect, or effect the other way, or a change in a side signal; inactive means no such curve, though single readings can be large or run the other way; the % refers to the signal ratio; further: potency means the concentration at half of the fitted maximal effect); details: ER-alpha-UAS-bla HEK293, beta-lactamase ratio, antagonist mode; activity, negative = inhibition: at 76.9 µM (top of the series) unless noted
UniProt P03372, sequence (P03372 whole entry, looked up): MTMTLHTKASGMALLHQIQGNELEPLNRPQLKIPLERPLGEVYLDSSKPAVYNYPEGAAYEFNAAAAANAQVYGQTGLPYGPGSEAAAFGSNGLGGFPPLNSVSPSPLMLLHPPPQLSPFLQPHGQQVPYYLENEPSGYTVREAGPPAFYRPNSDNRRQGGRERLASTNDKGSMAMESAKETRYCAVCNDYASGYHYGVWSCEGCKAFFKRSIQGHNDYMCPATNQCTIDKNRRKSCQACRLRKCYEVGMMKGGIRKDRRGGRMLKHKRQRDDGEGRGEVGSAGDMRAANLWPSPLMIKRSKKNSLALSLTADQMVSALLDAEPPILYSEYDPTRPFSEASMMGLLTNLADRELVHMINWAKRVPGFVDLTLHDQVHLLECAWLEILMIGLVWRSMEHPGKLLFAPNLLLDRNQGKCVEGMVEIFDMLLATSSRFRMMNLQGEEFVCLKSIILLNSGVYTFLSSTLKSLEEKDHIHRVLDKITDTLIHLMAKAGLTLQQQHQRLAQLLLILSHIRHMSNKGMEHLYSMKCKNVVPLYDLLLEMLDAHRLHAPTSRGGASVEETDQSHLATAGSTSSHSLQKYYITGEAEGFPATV
How it was run: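 Beta-lactamase reporter, antagonist mode, HEK 293 GripTite cells; 0.5nM E2 stimulus, 18 h, 37 C; CCF4 dye 2 h RT; fluorescence. IC50 and efficacy from Hill fits, normalized to E2 and DMSO.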

[2] = molecular target: Estrogen receptor (Homo sapiens) (UniProt P03372); assay: qHTS assay for small molecule agonists of estrogen receptor alpha signaling (AID 588514); details: ER-alpha-UAS-bla HEK293, beta-lactamase ratio, 18 h; activation: at 76.8 µM (top of the series), percent of full estradiol response, vehicle zero; further: nearly all actives have a fitted effect of over 70% in size; further: potency means the concentration at half of the fitted maximal effect
How it was run: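 Cells were plated at 5000/well, incubated 4 hrs at 37 C, dosed with compound titration series, incubated 18 hrs at 37 C, loaded with CCF4 dye for 2 hrs at RT, then fluorescence was read.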

[3] = molecular target: Bile acid receptor (Homo sapiens) (UniProt Q96RI1); assay: qHTS assay for small molecule antagonists of farnesoid X receptor signaling (AID 588526); details: HEK293T FXR-UAS-bla, beta-lactamase ratio, antagonist mode; activity change, negative = inhibition: at 76.7 µM (top of the series); further: potency means the concentration at half of the fitted maximal effect
How it was run: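 Concentration-response titrations were fitted to the Hill equation for half-maximal inhibition and maximal response, with data normalised to 50 uM chenodeoxycholic acid and DMSO control wells. Cells: FXR-UAS-bla HEK293T, dialyzed FBS.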

[4] = molecular target: Bile acid receptor (Homo sapiens) (UniProt Q96RI1); assay: qHTS assay for small molecule agonists of farnesoid X receptor signaling (AID 588527); details: HEK293T FXR-UAS-bla, beta-lactamase ratio, 16 h; activation: stronger effect = higher value; further: potency means the concentration at half of the fitted maximal effect
How it was run: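 Quantitative HTS used FXR-UAS-bla HEK293T cells with 16 h compound incubation at 37 C. EC50 values came from concentration-response curves normalized to chenodeoxycholic acid.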

[5] = molecular target: Glucocorticoid receptor (Homo sapiens) (UniProt P04150); assay: qHTS assay for small molecule antagonists of glucocorticoid receptor signaling (AID 588533; active means well fitted inhibition curve with a large enough effect in the signal ratio, with a control signal flat, not every such curve was filed as active; inconclusive means small, poorly fitted or top-dose-only effect, or effect the other way, or a change in a side signal; the % refers to the signal ratio;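 further: cells stimulated with 2 nM dexamethasone as agonist; potency means the concentration at half of the fitted maximal effect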); details: HeLa MMTV-bla, GRE beta-lactamase ratio, antagonist mode, 18 h; activity change, negative = inhibition: at 76.8 µM (top of the series) unless noted
[6] = molecular target: Peroxisome proliferator-activated receptor delta (Homo sapiens) (UniProt Q03181); assay: qHTS assay for small molecule agonists of peroxisome proliferator-activated receptor delta signaling (AID 588534); details: HEK293T PPARdelta-UAS-bla, beta-lactamase ratio, 18 h; activation: at 76.7 µM (top of the series); further: potency means the concentration at half of the fitted maximal effect
UniProt Q03181, sequence (Q03181 whole entry, looked up): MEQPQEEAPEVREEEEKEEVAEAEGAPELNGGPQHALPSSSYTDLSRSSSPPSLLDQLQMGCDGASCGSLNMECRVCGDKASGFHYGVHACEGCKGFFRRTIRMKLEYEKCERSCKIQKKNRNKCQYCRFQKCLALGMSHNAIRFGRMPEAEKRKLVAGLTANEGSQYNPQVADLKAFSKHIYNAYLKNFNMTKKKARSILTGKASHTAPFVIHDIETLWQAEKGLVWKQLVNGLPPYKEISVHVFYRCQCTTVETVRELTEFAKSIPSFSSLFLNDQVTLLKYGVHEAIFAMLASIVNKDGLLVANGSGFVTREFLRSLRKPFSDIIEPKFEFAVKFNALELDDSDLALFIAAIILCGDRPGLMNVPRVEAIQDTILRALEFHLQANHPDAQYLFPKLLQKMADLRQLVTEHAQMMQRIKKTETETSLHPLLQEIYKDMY
How it was run: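 Fluorescence from CCF4 substrate cleavage by beta-lactamase reporter, read 2 hrs at RT, measured agonist activity. Compounds were tested with 18 hrs exposure at 37 C. Concentration-response data fitted to Hill equation.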

[7] = molecular target: Peroxisome proliferator-activated receptor delta (Homo sapiens) (UniProt Q03181); assay: qHTS assay for small molecule antagonists of peroxisome proliferator-activated receptor delta signaling (AID 588535; active means well fitted inhibition curve with a large enough effect in the signal ratio, with a control signal flat, not every such curve was filed as active; inconclusive means small, poorly fitted or top-dose-only effect, or effect the other way, or a change in a side signal; inactive means no such curve, though single readings can be large or run the other way; the % refers to the signal ratio; further: potency means the concentration at half of the fitted maximal effect); details: HEK293T PPARd-UAS-bla, beta-lactamase FRET ratio, 18 h; activity change, negative = inhibition: at 76.7 µM (top of the series) unless noted
How it was run: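 Reporter: UAS-bla under PPAR-delta response element, HEK293T host. Medium: 2% charcoal/dextran FBS. Dosing: titration, 18 hrs, 37 C. Detection: CCF4, 2 hrs RT, 405 ex/460 and 530 em.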

[8] = molecular target: Peroxisome proliferator-activated receptor gamma (Homo sapiens) (UniProt P37231); assay: qHTS assay for small molecule antagonists of peroxisome proliferator-activated receptor gamma signaling (AID 588537; active means well fitted inhibition curve with a large enough effect in the signal ratio, with a control signal flat, not every such curve was filed as active; inconclusive means small, poorly fitted or top-dose-only effect, or effect the other way, or a change in a side signal; the % refers to the signal ratio; further: potency means the concentration at half of the fitted maximal effect;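 further: reporter cells co-stimulated with 50 nM rosiglitazone agonist during compound treatment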); details: HEK293 PPARg-UAS-bla, beta-lactamase ratio, antagonist mode; activity, negative = inhibition: at 76.8 µM (top of the series)
How it was run: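 We seeded GeneBLAzer HEK293 reporter cells at 3000 per well, allowed 6-6.5 h attachment at 37 C, then co-treated with test compound titrations and 50 nM rosiglitazone overnight (16 h). Inhibition was quantified from 460/530 nm emission ratios.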

[9] = molecular target: Retinoic acid receptor RXR-alpha (Homo sapiens) (UniProt P19793); assay: qHTS assay for small molecule agonists of retinoid X receptor alpha signaling (AID 588544); details: HEK293T RXRa-UAS-bla, beta-lactamase reporter, 18 h; activation: at 76.7 µM (top of the series) unless noted; further: potency means the concentration at half of the fitted maximal effect
UniProt P19793, sequence (P19793 whole entry, looked up): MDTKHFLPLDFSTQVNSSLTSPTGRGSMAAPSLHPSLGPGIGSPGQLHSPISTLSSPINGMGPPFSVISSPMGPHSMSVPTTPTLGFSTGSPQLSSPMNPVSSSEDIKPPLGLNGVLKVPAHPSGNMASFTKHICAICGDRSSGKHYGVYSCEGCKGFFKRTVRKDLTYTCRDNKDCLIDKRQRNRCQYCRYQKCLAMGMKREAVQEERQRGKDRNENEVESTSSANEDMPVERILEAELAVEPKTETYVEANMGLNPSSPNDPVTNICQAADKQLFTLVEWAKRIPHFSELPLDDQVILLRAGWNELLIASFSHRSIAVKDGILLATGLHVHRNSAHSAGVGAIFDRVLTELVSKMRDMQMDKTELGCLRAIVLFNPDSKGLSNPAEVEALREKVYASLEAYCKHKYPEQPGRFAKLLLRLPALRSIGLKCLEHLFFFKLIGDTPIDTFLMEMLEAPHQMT

[10] = molecular target: Thyroid hormone receptor beta (Homo sapiens) (UniProt P10828); assay: qHTS assay for small molecule antagonists of thyroid hormone receptor beta signaling (AID 588547; active means well fitted inhibition curve with a large enough effect in the signal ratio, with a control signal flat, not every such curve was filed as active; inconclusive means small, poorly fitted or top-dose-only effect, or effect the other way, or a change in a side signal; the % refers to the signal ratio; further: potency means the concentration at half of the fitted maximal effect;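 on activity change % (negative = inhibition): cells stimulated with 0.4 nM T3 agonist during compound exposure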); details: TR-UAS-bla HEK293, beta-lactamase ratio, antagonist mode, 18 h
UniProt P10828, sequence (P10828 whole entry, looked up): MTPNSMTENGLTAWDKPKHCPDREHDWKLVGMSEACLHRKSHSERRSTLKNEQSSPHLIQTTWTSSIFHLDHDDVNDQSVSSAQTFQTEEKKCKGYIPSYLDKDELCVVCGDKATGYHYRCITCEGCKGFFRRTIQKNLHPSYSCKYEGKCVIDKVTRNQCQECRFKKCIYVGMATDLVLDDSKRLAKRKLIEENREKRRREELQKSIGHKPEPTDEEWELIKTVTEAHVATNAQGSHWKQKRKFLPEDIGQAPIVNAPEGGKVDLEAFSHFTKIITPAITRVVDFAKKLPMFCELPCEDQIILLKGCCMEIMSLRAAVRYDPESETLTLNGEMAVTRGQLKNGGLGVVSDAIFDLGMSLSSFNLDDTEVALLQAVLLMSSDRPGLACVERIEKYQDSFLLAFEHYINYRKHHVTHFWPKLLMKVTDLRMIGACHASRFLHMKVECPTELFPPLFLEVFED
How it was run: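 TR-UAS-bla GripTite HEK293 cells in 2% charcoal/dextran FBS medium were preincubated 4 h at 37 C, given compound (0.59 nM to 92 uM) plus 0.4 nM T3 (final) for 18 h, then CCF4 for 2 h at RT; Hill fit gave IC50.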

[11] = molecular target: Luciferin 4-monooxygenase (Photinus pyralis) (UniProt P08659); assay: Biochemical firefly luciferase enzyme assay for NPC (AID 624030; active means well fitted curve in the direction sought with a large enough effect; inconclusive means small, poorly fitted or top-dose-only effect, or another doubt; inactive means no such curve, though single readings can be large; an effect the other way counts as inactive or inconclusive; further: potency means the concentration at half of the fitted maximal effect; nearly all actives have a fitted effect of over 70% in size)
UniProt P08659, sequence (P08659 whole entry, looked up): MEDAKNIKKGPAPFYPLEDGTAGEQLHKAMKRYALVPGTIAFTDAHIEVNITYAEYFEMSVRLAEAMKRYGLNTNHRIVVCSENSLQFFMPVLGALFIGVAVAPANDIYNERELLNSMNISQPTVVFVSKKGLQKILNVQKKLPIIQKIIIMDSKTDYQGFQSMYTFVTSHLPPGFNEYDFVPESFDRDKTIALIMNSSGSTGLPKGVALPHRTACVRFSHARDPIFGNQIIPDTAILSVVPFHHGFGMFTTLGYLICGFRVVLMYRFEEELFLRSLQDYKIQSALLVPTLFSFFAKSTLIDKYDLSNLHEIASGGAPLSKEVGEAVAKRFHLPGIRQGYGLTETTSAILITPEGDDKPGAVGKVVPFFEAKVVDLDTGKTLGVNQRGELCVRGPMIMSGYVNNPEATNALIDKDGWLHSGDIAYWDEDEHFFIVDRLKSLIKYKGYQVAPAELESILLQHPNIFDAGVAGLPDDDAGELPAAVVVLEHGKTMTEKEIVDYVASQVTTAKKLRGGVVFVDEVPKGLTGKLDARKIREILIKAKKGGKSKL
How it was run: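 Counter-screen for direct inhibition of the luciferase enzyme by approved-drug library compounds, run at 10 nM enzyme in 50 mM Tris acetate (final). Luminescence was read within 5 min of enzyme-buffer addition and normalized to PTC124 versus DMSO (0%).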

[12] = qHTS assay for small molecule activators of the p53 signaling pathway (AID 651743; active means well fitted activation curve with a large enough effect in the signal ratio, not every such curve was filed as active; inconclusive means small, poorly fitted or top-dose-only effect, or a change in a side signal; the % refers to the signal ratio; further: potency means the concentration at half of the fitted maximal effect); details: HCT-116 p53RE-bla, beta-lactamase FRET ratio, 16 h; activation: stronger effect = higher value
How it was run: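 Cell-based beta-lactamase reporter (p53 response elements, HCT-116 background). After a 5-hour preincubation, cells received compound for 16 hours at 37 C; substrate development ran 2 hours at room temperature.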

[13] = qHTS assay to identify small molecules that stimulate interleukin-8 (IL-8) secretion (AID 651758; active means well fitted activation curve with a large enough effect in the signal ratio; inconclusive means small, poorly fitted or top-dose-only effect, or effect the other way, or a change in a side signal; the % refers to the signal ratio; further: potency means the concentration at half of the fitted maximal effect); details: HTRF ratio (665/615); activation: at 92.2 µM (top of the series)
How it was run: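 THP-1, 2000 cells/well; cpd 16 h, 37 C; add cryptate + XL665 anti-IL-8 Abs; RT 1-3 h; TR-FRET read.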

[14] = qHTS assay for small molecule agonists of the antioxidant response element (ARE) signaling pathway measured by Nrf2-dependant transcriptional activity (AID 720636; active means well fitted curve in the direction sought with a large enough effect in the repeat runs; inconclusive means weak or mixed curves; inactive means no such curve, though single readings can be large; an effect the other way counts as inactive or inconclusive; further: potency means the concentration at half of the fitted maximal effect)
How it was run: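 ARE-luc HepG2 cells carrying an Nrf2-responsive luciferase reporter, in medium with 1% dialyzed FBS, exposed to compound for 16 hr at 37 C, 5% CO2. Luminescence read 30 min after ONE-Glo addition.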

[15] = qHTS assay for small molecule antagonists of the retinoid-related orphan receptor gamma (ROR-gamma) signaling pathway - cell viability counter screen (AID 720652; active means well fitted curve in the direction sought with a large enough effect in the repeat runs; inconclusive means weak or mixed curves; inactive means no such curve, though single readings can be large; an effect the other way counts as inactive or inconclusive;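 further: potency means the concentration at half of the fitted maximal effect; compound exposure lasted 16 hr before ATP read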)
How it was run: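 Luminescence from CellTiter-Glo after 30 min at room temperature reported cellular ATP as the cytotoxicity measure. Cells were the CHO reporter line with doxycycline-induced ROR-gamma expression, exposed to compound for 16 hr at 37 C.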

[16] = molecular target: Peroxisome proliferator-activated receptor gamma (Homo sapiens) (UniProt P37231); assay: qHTS assay for small molecule agonists of peroxisome proliferator-activated receptor gamma signaling (AID 588536; active means well fitted curve in the direction sought with a large enough effect in the signal ratio, with a control signal flat, not every such curve was filed as active; inconclusive means small, poorly fitted or top-dose-only effect, or effect the other way, or a change in a side signal; inactive means no such curve, though single readings can be large or run the other way; the % refers to the signal ratio; further: potency means the concentration at half of the fitted maximal effect); details: HEK293 PPARg-UAS-bla, beta-lactamase ratio, 16 h; activation: at 76.7 µM (top of the series), percent of rosiglitazone response, DMSO as zero unless noted
How it was run: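 HEK293 UAS-bla reporter line, 1% charcoal/dextran FBS; titration, 16 h, 37 C; CCF4 loading 2 h RT; fluorescence 460/530 nm. Normalized to rosiglitazone 2 uM = 100%, DMSO = 0%.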

[17] = molecular target: Vitamin D3 receptor (Homo sapiens) (UniProt P11473); assay: qHTS assay for small molecule antagonists of vitamin D receptor signaling (AID 588541); details: HEK293T VDR-UAS-bla, beta-lactamase ratio, antagonist mode; activity change, negative = inhibition: at 76.7 µM (top of the series);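 further: receptor activated by calcitriol during compound treatment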
UniProt P11473, sequence (P11473 whole entry, looked up): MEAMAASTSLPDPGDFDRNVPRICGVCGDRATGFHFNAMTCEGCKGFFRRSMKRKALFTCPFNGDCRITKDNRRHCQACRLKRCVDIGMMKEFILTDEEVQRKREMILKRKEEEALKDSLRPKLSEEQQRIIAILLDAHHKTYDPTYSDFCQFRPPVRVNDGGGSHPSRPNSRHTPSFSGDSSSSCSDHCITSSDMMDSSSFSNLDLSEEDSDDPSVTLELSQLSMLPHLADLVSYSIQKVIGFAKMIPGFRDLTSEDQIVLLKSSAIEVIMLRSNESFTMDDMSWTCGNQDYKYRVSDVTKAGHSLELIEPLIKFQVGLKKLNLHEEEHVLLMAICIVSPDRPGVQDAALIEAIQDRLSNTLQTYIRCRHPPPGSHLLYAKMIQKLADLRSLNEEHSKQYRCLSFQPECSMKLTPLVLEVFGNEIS

[18] = molecular target: Thyroid hormone receptor beta (Homo sapiens) (UniProt P10828); assay: qHTS assay for small molecule agonists of thyroid hormone receptor beta signaling (AID 588545); details: TR-UAS-bla GripTite HEK 293, beta-lactamase ratio, agonist mode, 18 h; activation: at 76.7 µM, percent of T3 response, DMSO as zero
How it was run: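 Agonist activity was read as beta-lactamase CCF4 fluorescence (405 ex, 460/530 em), scaled between DMSO (0%) and 10 nM T3 (100%), then Hill-fitted for EC50 and efficacy. HEK 293 TR-UAS-bla cells in 2% charcoal/dextran FBS medium were exposed 18 h at 37 C.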

[19] = molecular target: Retinoic acid receptor RXR-alpha (Homo sapiens) (UniProt P19793); assay: qHTS assay for small molecule antagonists of retinoid X receptor alpha signaling (AID 588546; active means well fitted inhibition curve with a large enough effect in the signal ratio, with a control signal flat, not every such curve was filed as active; inconclusive means small, poorly fitted or top-dose-only effect, or effect the other way, or a change in a side signal; inactive means no such curve, though single readings can be large or run the other way; the % refers to the signal ratio; further: potency means the concentration at half of the fitted maximal effect); details: HEK293T RXRa-UAS-bla, beta-lactamase ratio, antagonist mode
How it was run: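 Beta-lactamase reporter inhibition, read as CCF4 fluorescence ratio (ex 405, em 460/530 nm) after 2 h at RT. HEK293T UAS-bla cells, 2500/well, were stimulated with 9-cis-RA at 500 or 100 nM final alongside test compound for 18 h at 37 C.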

[20] = qHTS assay for small molecule agonists of the antioxidant response element (ARE) signaling pathway (AID 651741; active means well fitted activation curve with a large enough effect in the signal ratio; inconclusive means small, poorly fitted or top-dose-only effect, or effect the other way, or a change in a side signal; the % refers to the signal ratio; further: potency means the concentration at half of the fitted maximal effect); details: HepG2 ARE-bla reporter, beta-lactamase FRET ratio, 16 h; activation: at 96 µM (top of the series) unless noted
How it was run: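 Compounds in DMSO are pinned onto HepG2 ARE-bla cells (2,000/well) that were preincubated 5 h; plates stay 16 h at 37 C, then beta-lactamase activity is detected with LiveBLAzer B/G substrate by fluorescence.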

[21] = qHTS assay for small molecule activators of the nuclear factor-kappa B (NF-kB) signaling pathway (AID 651749; active means well fitted activation curve with a large enough effect in the signal ratio; inconclusive means small, poorly fitted or top-dose-only effect, or a change in a side signal; the % refers to the signal ratio; further: potency means the concentration at half of the fitted maximal effect); details: NF-kB-bla ME-180 cells, beta-lactamase FRET ratio, 16 h; activation: stronger effect = higher value
How it was run: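 Screening used 2,000 ME-180 reporter cells per well exposed to pinned compound (23 nL) or DMSO; after 16 hr at 37C, beta-lactamase expression under NF-kB control was assessed through FRET.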

[22] = molecular target: Peroxisome proliferator-activated receptor alpha (Homo sapiens) (UniProt Q07869); assay: qHTS assay for small molecule agonists of the peroxisome proliferator-activated receptor alpha (PPARalpha) signaling pathway (AID 651778; active means well fitted curve in the direction sought with a large enough effect; inconclusive means small, poorly fitted or top-dose-only effect, or another doubt; inactive means no such curve, though single readings can be large; an effect the other way counts as inactive or inconclusive; further: potency means the concentration at half of the fitted maximal effect); details: PathHunter PPARalpha complementation, chemiluminescence, 6 h; max response: stronger effect = higher value
UniProt Q07869, sequence (Q07869 whole entry, looked up): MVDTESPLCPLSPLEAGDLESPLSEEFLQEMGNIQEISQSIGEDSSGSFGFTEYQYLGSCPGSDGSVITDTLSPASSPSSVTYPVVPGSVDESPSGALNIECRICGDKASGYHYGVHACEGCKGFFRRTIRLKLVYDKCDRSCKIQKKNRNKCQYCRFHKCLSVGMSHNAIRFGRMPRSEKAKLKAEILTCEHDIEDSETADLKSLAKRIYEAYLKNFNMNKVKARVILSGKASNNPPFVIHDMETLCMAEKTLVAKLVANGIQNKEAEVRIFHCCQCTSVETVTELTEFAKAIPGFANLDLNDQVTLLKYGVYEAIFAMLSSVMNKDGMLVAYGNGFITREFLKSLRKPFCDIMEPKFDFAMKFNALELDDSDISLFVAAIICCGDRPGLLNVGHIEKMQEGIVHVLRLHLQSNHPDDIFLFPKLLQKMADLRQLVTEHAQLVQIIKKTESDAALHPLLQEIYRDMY
How it was run: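 Cells plated at 2,000/well and held overnight at 37 C, 5% CO2, then compound added by pin tool for 6 hr; after PathHunter detection reagent and 60 min at room temperature, chemiluminescence from enzyme complementation was read.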

[23] = qHTS assay for cell viability of HEK293 cells (AID 743288; active means well fitted curve in the direction sought with a large enough effect; inconclusive means small, poorly fitted or top-dose-only effect, or another doubt; inactive means no such curve, though single readings can be large; an effect the other way counts as inactive or inconclusive; further: potency means the concentration at half of the fitted maximal effect; nearly all actives have a fitted effect of over 50% in size); details: ATP luminescence (CellTiter-Glo), 18 h; max response: stronger effect = lower value
How it was run: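 Environmental chemicals tested in qHTS format against parental HEK293 cells; 18 h treatment, 37 C; read-out ATP luminescence (CellTiter-Glo), 30 min RT development.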
Tags describe the fitted curve by direction and shape or compound fluorescence and quenching.

**Q.** Which Potency [1] does the source give for `C=C1CC[C@H](O)C/C1=C/C=C1\CCC[C@]2(C)[C@@H]([C@H](C)CCCC(C)C)CC[C@@H]12` here?
**A.** active: 15.8 µM [inconclusive]

**Q.** What about the Potency [2] of the same molecule?
**A.** inconclusive [side channel, rising, partial curve, poor fit]

**Q.** What about the Potency [3] of the same molecule?
**A.** inconclusive [falling, partial curve]

**Q.** And the Potency [4]?
**A.** inconclusive [side channel, rising, partial curve, poor fit]

**Q.** What about the Potency [5] of the same molecule?
**A.** inconclusive [inhibitor, single point]

**Q.** What about the Potency [6] of the same molecule?
**A.** inconclusive [side channel, rising, partial curve]

**Q.** And the Potency [7]?
**A.** inconclusive [fluorescent, side channel]

**Q.** What about the Potency [8] of the same molecule?
**A.** inconclusive [falling, partial curve]

**Q.** And the Potency [9]?
**A.** inconclusive [side channel, rising, partial curve]

**Q.** And the Potency [10]?
**A.** inconclusive [fluorescent, side channel, partial curve, poor fit]

**Q.** And the Potency [11]?
**A.** inconclusive [inhibitor, partial curve]

**Q.** What about the Potency [12] of the same molecule?
**A.** inconclusive [rising, single point]

**Q.** And the Potency [13]?
**A.** inconclusive [inhibitor, partial curve, poor fit]

**Q.** What about the Potency [14] of the same molecule?
**A.** inconclusive [activator, partial curve, poor fit]

**Q.** And the Potency [15]?
**A.** active: 66.8 µM

**Q.** Which Potency [1] does the source give for `ClC1=C(Cl)[C@@]2(Cl)[C@H]3C[C@@H](Cl)[C@H](Cl)[C@H]3[C@@]1(Cl)C2(Cl)Cl` here?
**A.** inconclusive [fluorescent, side channel, partial curve, poor fit]

**Q.** What about the activation [2] of the same molecule?
**A.** inconclusive: -12.5%

**Q.** What about the Potency [3] of the same molecule?
**A.** inconclusive [inhibitor, partial curve]

**Q.** And the Potency [5]?
**A.** inconclusive [inhibitor, single point]

**Q.** What about the Potency [6] of the same molecule?
**A.** inconclusive [side channel, rising, single point]

**Q.** And the Potency [7]?
**A.** inconclusive [fluorescent, side channel, single point]

**Q.** And the Potency [16]?
**A.** inconclusive [inhibitor, partial curve]

**Q.** And the activity, negative = inhibition [8]?
**A.** inconclusive: -31.2%

**Q.** What about the Potency [17] of the same molecule?
**A.** inactive

**Q.** And the Potency [9]?
**A.** inconclusive [inhibitor, full curve]

**Q.** And the activation [18]?
**A.** inconclusive: 110%

**Q.** What about the Potency [19] of the same molecule?
**A.** inconclusive [inhibitor, partial curve, poor fit]

**Q.** And the activity change % (negative = inhibition) [10]?
**A.** inconclusive: 20.4%

**Q.** And the Potency [20]?
**A.** active: 24.3 µM

**Q.** And the activation [12]?
**A.** inconclusive: 49.8%

**Q.** What about the Potency [21] of the same molecule?
**A.** inconclusive [rising, single point]

**Q.** What about the Potency [22] of the same molecule?
**A.** inconclusive [activator, partial curve]

**Q.** And the Potency [14]?
**A.** inconclusive [activator, partial curve]

**Q.** And the Potency [23]?
**A.** inconclusive [cytotoxic, single point]
